Experimental data from PubChem BioAssay AID445 (National Center for Advancing Translational Sciences (NCATS), 2006).
In all, about 110,000 compounds went through this assay and about 40 (0.04%) were called active. The inconclusive results got no clear call from the source; some entries with a clear call stand among them for comparison. Calls follow the shape of the dose curve; as a rule, active = well fitted curve in the direction sought with a large enough effect in the signal ratio (not every such curve was filed as active); inconclusive = small, poorly fitted or top-dose-only effect, or a change in a side signal; inactive = flat fitted curve, though single readings scatter; the % refers to the signal ratio. Where the call is inconclusive, the potency comes from a doubtful curve fit.

test: IkB Signaling; details: ABC-DLBCL IkBa-CBG/CBR dual luciferase ratio (green luciferase fused to IkBa over red control in OCI-Ly3 lymphoma cells), 4 h; IkBa stabilization activation: at 57.1 µM (top of the series), scaled: untreated 0%, proteasome inhibitor 100% unless noted;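 as to IkBa stabilization activation: 0% = basal untreated cells and 100% = reference inhibitor full response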
Procedure, shortened: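 Luminescence ratio of IκBα-fused green versus native red beetle luciferase in OCI-Ly3 cells, 4 h post-doxycycline with compound; red signal alone, scaled from basal (0%) to zero light (-100%), flagged nonspecific or cytotoxic effects.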
Potency is read from the fitted curve at half-maximal effect.

| Structure (SMILES) | IkBa stabilization activation | Potency |
| --- | --- | --- |
| C=CCNc1ncnc2c1[nH]c1ccc(C)cc12 | inactive: -0.772% | – |
| COc1ccccc1CNC(=O)Cn1c(=O)nc(-c2ccccc2)c2ccccc21 | inconclusive: 3.38% [signal inhibitor] | – |
| CCNC(=O)c1ccc2c(c1)S(=O)(=O)c1ccccc1C2=O | inactive: -1.8% | – |
| COC(=O)c1ccc(NC(=O)CN(Cc2ccccc2)S(=O)(=O)c2ccc(Cl)cc2)cc1 | – | inconclusive: 25.1 µM [signal inhibitor] |
| Oc1c(C(c2ccccc2F)N2CCCC2)sc2nc(-c3ccco3)nn12 (stereo unspecified) | inactive: -1.57% | – |
| Cc1c(Cl)cccc1NC(=O)Nc1ccc2snnc2c1 | inconclusive: -2.08% [signal inhibitor] | – |
| CCC(C)(C)NC(=O)C(c1ccncc1)N(Cc1cccs1)C(=O)Cn1nnc2ccccc21 (stereo unspecified) | inactive: -0.423% | – |
| O=C(NCCc1ccccc1)c1ccc(CS(=O)(=O)c2ccc(Cl)cc2)o1 | inconclusive: -0.88% [signal inhibitor] | – |
| CCn1c(=S)sc2c(=O)n(-c3ccccc3)c(SC)nc21 | inconclusive: 2.12% [signal inhibitor] | – |
| Clc1ccccc1C(Nc1cnccn1)Nc1cnccn1 | inactive: 3.01% [at 11.4 µM, scaled: untreated 0%, proteasome inhibitor 100%] | – |
| Cc1cc(NC(=O)c2cnc3c(-c4ccccc4)c(C)nn3c2C)ccc1Br | – | inconclusive: 20 µM [signal inhibitor, partial curve] |
| COc1ccccc1NC(=O)C1CCCCN1S(=O)(=O)c1ccc(F)cc1 (stereo unspecified) | inconclusive: 5.32% [signal inhibitor] | – |
| Cc1ccc(N2C(=O)c3ccccc3C2O)nc1 (stereo unspecified) | – | inconclusive: 12.6 µM [signal inhibitor, partial curve] |
| CCn1c(SCC(=O)c2ccccc2)nnc1-c1cccc(Cl)c1 | inactive: -1.48% | – |
| CCc1c(CN2CCN(c3ccccc3F)CC2)csc1C | inconclusive: -0.294% [signal inhibitor] | – |
| COc1ccc(N2CC(C(=O)Nc3ccc4c(c3)OCO4)CC2=O)cc1 (stereo unspecified) | inactive: -0.299% | – |
| Cc1ccc(/C=C/c2onc(C)c2S(=O)(=O)N2CCC(C(=O)NCc3ccc(OC(C)C)cc3)CC2)cc1 | inconclusive: 1.68% [signal inhibitor] | – |
| O=C(O)CNCCc1ccccc1 | inactive: 1.17% [at 11.4 µM, scaled: untreated 0%, proteasome inhibitor 100%] | – |
| Cc1ccc(CNC(=O)c2ccccc2NC(=O)c2nsc3ccccc23)cc1 | inconclusive: 3.05% [signal inhibitor] | – |
| CCc1ccc(NC(=O)CSc2ncc(S(=O)(=O)c3cc(C)ccc3C)c(=O)[nH]2)cc1 | inconclusive: 5.5% [signal inhibitor] | – |
| COc1ccc(CC(=O)NC2CC(=O)N(c3ccc(C)c(C)c3)C2)cc1OC (stereo unspecified) | inconclusive: -0.867% [signal inhibitor] | – |
| CC(C)(C)NC(=O)CSc1ncnc2c1nnn2Cc1ccccc1Cl | – | inconclusive: 31.6 µM [rising, partial curve] |
| O=C(Cn1c(=O)oc2cc(S(=O)(=O)N3CCCCC3)ccc21)NCc1ccc(F)cc1 | inconclusive: 0.894% [signal inhibitor] | – |
| Cc1ccc(CNC(=O)CN2C(=O)C3(SCC(=O)N3c3ccc(F)c(F)c3)c3ccccc32)cc1 (stereo unspecified) | inconclusive: 10.4% [signal inhibitor] | – |
| COC(=O)c1c(NC(=O)c2ccc(S(=O)(=O)N(C)C3CCCCC3)cc2)sc2c1CCN(C)C2 | inconclusive: 0.208% [signal inhibitor] | – |
| COC(=O)c1ccccc1NC(=O)C1CCCN(c2nnc(C)c3c(C)n(-c4ccccc4)nc23)C1 (stereo unspecified) | inconclusive: -1.32% [signal inhibitor] | – |

| Structure (SMILES) | IkBa stabilization activation | Potency |
| --- | --- | --- |
| CN1C(=O)C(O)(C2COC(C)(C)CC2=O)c2cc(Br)ccc21 (stereo unspecified) | inconclusive: 16.5% [signal activator] | – |
| CCc1cccc(C)c1NC(=O)c1ccoc1C | inactive: -0.133% | – |
| CCOC(=O)C1CCN(c2ncnc3c2c(-c2ccccc2)cn3-c2ccc(Cl)cc2)CC1 | inconclusive: -1.77% [signal inhibitor] | – |
| CCCCCCn1c(NCC)nc2c1c(=O)[nH]c(=O)n2C | inactive: 0.12% | – |
| Fc1cccc(Nc2cc(-n3cccn3)ncn2)c1 | inconclusive: 2.51% [signal inhibitor] | – |
| CCOc1ccccc1Oc1nc(C)nc2c1oc1ccccc12 | inactive: -2.52% | – |
| O=C(COc1ccc(Cl)cc1Cl)Nc1ccccn1 | – | inconclusive: 15.8 µM [signal inhibitor, partial curve] |
| CC(=O)N(c1cccc(Br)c1)C1C=CS(=O)(=O)C1 (stereo unspecified) | inactive: 2.61% | – |
| CCCn1c(=O)c2ccccc2n2c(SCc3cc(=O)n4ccsc4n3)nnc12 | inactive: -2.54% | – |
| Cc1ccc(-c2nc(CS(=O)CC(=O)NCCc3ccc(Cl)cc3)c(C)o2)cc1 (stereo unspecified) | inconclusive: 2.68% [signal inhibitor] | – |
| CC(CNC(=O)CCCn1c(=O)c2cccn2c2ccc(F)cc21)c1ccccc1 (stereo unspecified) | inconclusive: 0.324% [signal inhibitor] | – |
| CCN(C(=O)CCc1nc(-c2ccc(OC)cc2)no1)c1cc(OC)ccc1OC | inconclusive: 2.97% [signal inhibitor] | – |
| CCOc1ccc(-n2nc(CO)c(C(=O)NCC(C)O)n2)cc1 (stereo unspecified) | inactive: -0.472% | – |
| O=C(O)/C=C\c1cnc[nH]1 | inactive: 0.464% | – |
| C[N+]1(C)CC[C@@H](OC(=O)[C@@](O)(c2ccccc2)C2CCCC2)C1 | inactive: 0.686% [at 25.6 µM, scaled: untreated 0%, proteasome inhibitor 100%] | – |
| COC(=O)c1cc2sccc2n1CC(=O)Nc1cc(Cl)ccc1OC | inactive: -1.78% | – |
| CCc1cc2cc(C(=O)Nc3ccccc3F)sc2s1 | – | inconclusive: 0.398 µM [signal inhibitor, full curve] |
| O=S(=O)(N1CCCCC1)n1c(Cc2ccccc2)nc2ccccc21 | inconclusive: 3.99% [signal inhibitor] | – |
| CN(C(=O)CSc1nc2ccccc2n1Cc1ccccc1C#N)c1ccccc1 | inconclusive: -0.269% [signal inhibitor] | – |
| CCOc1ccc(-c2nc3cc(NC(=O)COc4cccc(C)c4)ccc3o2)cc1 | inactive: -1.46% | – |
| O=C(CSc1ncn[nH]1)OCN1C(=O)c2ccccc2C1=O | inconclusive: 5.56% [signal activator] | – |
| CCOc1ccccc1CNC(=O)c1oc2ccc3c(c2c1C)C(=O)CC(C)(C)O3 | inactive: -1.44% | – |
| O=c1c2sc3ccccc3c2n(Cc2ccc(F)cc2Cl)c(=O)n1Cc1ccccc1 | inconclusive: 2.16% [signal inhibitor] | – |
| CCCn1c(NC(=O)c2ccc(C)cc2)nc2ccccc21 | inactive: 0.0798% | – |
| Cc1ccc(NC(c2nnc(-c3ccccc3)o2)c2ccccc2F)c(Cl)c1 (stereo unspecified) | inconclusive: 8.85% [signal inhibitor] | – |
| COC(=O)c1ccc2nc(C)cc(Nc3cccc(Cl)c3C)c2c1 | inconclusive: 12.1% [signal inhibitor] | – |

| Structure (SMILES) | IkBa stabilization activation | Potency |
| --- | --- | --- |
| Cc1ccc2oc(-c3ccc(C)c(NC(=O)c4ccc(-c5ccccc5[N+](=O)[O-])o4)c3)nc2c1 | – | inconclusive: 15.8 µM [signal inhibitor] |
| Cc1ccc(CNC(=O)CN2C(=O)CCc3cc(S(=O)(=O)N4CCCCC4)ccc32)cc1 | inactive: 1.19% | – |
| CCN(CC)S(=O)(=O)c1ccc(N2CCCCS2(=O)=O)cc1 | inactive: -0.996% | – |
| CCOC(=O)c1ccc(-c2ccc(/C=C(\C#N)C(=O)Nc3ccc(C)cc3)o2)cc1 | inactive: -0.769% | – |
| Cc1ccc(S(=O)(=O)c2c(C)nn(C(C)(C)C)c2OC(=O)C(C)(C)C)cc1 | inactive: 1.42% | – |
| COc1cc(CN(C(=O)c2ccc(Cl)cc2)C2CCS(=O)(=O)C2)cc(OC)c1OC (stereo unspecified) | inactive: -1.51% | – |
| CCC(C(=O)NC1CCCCC1)n1c(SCc2cccc(F)c2)nc2ccncc21 (stereo unspecified) | inconclusive: 2.13% [signal inhibitor] | – |
| Cc1ccc(S(=O)(=O)C(CNS(=O)(=O)c2ccc(F)c(C(F)(F)F)c2)c2ccco2)cc1 (stereo unspecified) | inconclusive: 5.88% [signal inhibitor] | – |
| CC(CNC(=O)C1CCN(C(=O)c2cc3sccc3n2C)CC1)c1ccccc1 (stereo unspecified) | inconclusive: -0.332% [signal inhibitor] | – |
| Cc1cc(C)cc(OCC(=O)Nc2cccc(-c3nnc(-c4ccco4)o3)c2)c1 | inactive: -0.269% | – |
| Cn1c(Cl)nc2ccccc21 | inactive: 1.38% | – |
| Cc1ccc(Cl)cc1Nc1nn2c(=O)c3ccc(C(=O)NC(C)c4ccccc4)cc3nc2s1 (stereo unspecified) | inconclusive: 0.834% [signal inhibitor] | – |
| Cc1ccc(Cl)cc1N1CCN(C(=O)CCS(=O)(=O)c2ccc3c(c2)oc(=O)n3C)CC1 | inactive: 2.96% | – |
| COc1ccccc1CNC(=O)CCc1c(C)nn(-c2ccc(N3CCCCC3)nn2)c1C | inconclusive: 0.391% [signal inhibitor] | – |
| CCOc1cccc(NC(=O)C2CC(=O)N(C)C(=Nc3ccc(OC)cc3)S2)c1 (stereo unspecified) | inactive: 1.15% | – |
| Cn1nc(C(=O)NCc2ccccc2)c2c1-c1ccccc1S(=O)(=O)C2 | inconclusive: 4.04% [signal inhibitor] | – |
| COc1cc(C(c2sc3nc(C)nn3c2O)N2CCOCC2)cc(OC)c1OC (stereo unspecified) | inactive: 13.3% | – |
| Cc1ccc(CNC(=O)CSc2nc(C)cc(C)c2C#N)cc1 | inactive: 1.85% | – |
| CCC(O)CNc1nc(-n2nc(C)cc2C)nc2sc3c(c12)CCCC3 (stereo unspecified) | inactive: 0.787% | – |
| O=C(CS(=O)(=O)Cc1ccccc1)Nc1nc2ccccc2s1 | inactive: 2.83% | – |
| COc1ccc(-c2nc3cc(C(C)C)ccc3o2)cc1NC(=O)c1ccccc1[N+](=O)[O-] | – | inconclusive: 3.16 µM [signal inhibitor, full curve] |
| CN(C)c1ccc(-n2cc3c(=O)n(C)c(=O)n(C)c3c2)cc1 | inactive: -1.33% | – |
| CCOc1ccccc1CNC(=O)CCn1c(=O)c2cccn2c2ccc(F)cc21 | inconclusive: 0.998% [signal inhibitor] | – |
| COc1ccc2c(c1)c(=O)c(C(=O)c1ccc(C)c(C)c1)cn2CC(=O)Nc1ccc2c(c1)OCCO2 | inconclusive: 0.587% [signal inhibitor] | – |
